In the supplement of paper PMC3334620:
The full ranking holds about 33,000 sequences; the median of “E-score (-0.5 to 0.5)” is about -0.012, and the highest 2% start at about 0.27. Some of the results follow.

target: T1, Vhr1 (UniProt P40522); experiment: PBM E-score (8-mer binding enrichment) (E-score (-0.5 to 0.5)); higher = stronger / more preferred TF binding; most listed sequences are background and not binding sites; settings: protein concentration: 200 nM; construct: GST-full length
T1 sequence: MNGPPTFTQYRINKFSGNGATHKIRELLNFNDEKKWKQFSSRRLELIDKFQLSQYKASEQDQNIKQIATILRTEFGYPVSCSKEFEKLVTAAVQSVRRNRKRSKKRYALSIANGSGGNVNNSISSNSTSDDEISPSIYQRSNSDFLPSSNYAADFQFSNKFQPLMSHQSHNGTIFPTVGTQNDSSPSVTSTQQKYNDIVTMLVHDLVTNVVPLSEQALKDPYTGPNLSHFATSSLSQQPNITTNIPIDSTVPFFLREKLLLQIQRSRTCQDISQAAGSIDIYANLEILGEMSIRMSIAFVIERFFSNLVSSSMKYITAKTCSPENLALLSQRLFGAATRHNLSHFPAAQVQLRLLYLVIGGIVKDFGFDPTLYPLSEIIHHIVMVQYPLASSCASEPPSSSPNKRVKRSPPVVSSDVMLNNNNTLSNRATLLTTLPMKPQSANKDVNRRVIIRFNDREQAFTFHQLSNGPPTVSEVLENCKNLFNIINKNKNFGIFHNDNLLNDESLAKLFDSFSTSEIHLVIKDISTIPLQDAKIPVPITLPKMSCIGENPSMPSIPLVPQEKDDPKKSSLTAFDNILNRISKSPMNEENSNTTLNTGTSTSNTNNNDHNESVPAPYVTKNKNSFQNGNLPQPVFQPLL
How it was run: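 For each ungapped eight-base word taken together with its reverse complement, the Universal PBM Analysis Suite assigned an E-score. Binding data came from GST-tagged yeast transcription factors, applied at about 100-200 nM, on universal all-10-mer Agilent arrays made double-stranded by primer extension. Fluorescent anti-GST marked bound protein, and scans were normalised with masliner.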

In order of falling “PBM E-score” value:
1. CGTGACTC  0.472
2. ACCGCGCG  0.336
3. CACAGTCA  0.244
4. AATATGTG  0.231
5. AGCATGAG  0.214
6. TCAGCGGA  0.204
7. AATGATCT  0.189
8. ATATGCAC  0.174
9. ATATAGCA  0.166
10. ACACGCGG  0.165
11. AACCGCGC  0.162
12. ACATGTAG  0.148
13. GTTACCCA  0.135
14. GTACGGAC  0.135
15. GGCTGATA  0.129
16. CAAACCAA  0.125
17. ATTTCTCG  0.119
18. GATATCCA  0.116
19. TATCCTGA  0.0793
20. ACGAGCGG  0.0726
21. ATCGAACC  0.0716
22. CAACCAGC  0.0712
23. CCGGTTGA  0.0709
24. GCCTGGAA  0.0664
25. CGGGCCGC  0.066
26. GCTACACC  0.0574
27. AGACGACC  0.0506
28. CAGCAGGG  0.0475
29. ATCCCGGA  0.0474
30. AGCATACC  0.0407
31. CTAACTGA  0.0377
32. ACAACTCG  0.0362
33. GGGGATTA  0.0356
34. ATTACCAG  0.0341
35. AGGTGGTC  0.0319
36. ATCAAAAA  0.0258
37. ATCGTGGC  0.0224
38. CAGGCATC  0.0171
39. AACCAGGT  0.00882
40. CATTCATC  0.00286
41. ACGTACCC  -0.00016
42. AATAGCAT  -0.00071
43. CCCTCCAC  -0.00309
44. GACGTTGA  -0.00553
45. AGCAGGCG  -0.00605
46. GCGCCAGC  -0.00609
47. AAATGGAT  -0.0084
48. ACAACTGG  -0.0138
49. CAGACGGC  -0.0191
50. GATCAATA  -0.0202
51. CGTCACAC  -0.021
52. CCTTATAA  -0.0239
53. CGGATGGA  -0.029
54. CATTTACC  -0.0302
55. GTGTGGGA  -0.0315
56. CGAGTATC  -0.0336
57. ACAGGGGG  -0.0353
58. CTAGCTAG  -0.041
59. CGATGCGA  -0.0418
60. GAATTACC  -0.0496
61. GAAACAAA  -0.0509
62. CGTTTCAG  -0.0522
63. AGCGACCT  -0.0531
64. GCACAGGC  -0.0644
65. ATAATTCG  -0.0653
66. TACAAAAA  -0.0714
67. GCGATAGA  -0.072
68. GCCTTATA  -0.0741
69. GATCGGAC  -0.0753
70. ACAGTACC  -0.0791
71. CGAAAACG  -0.0998
72. GGCTGCCC  -0.109
73. AGCTCTGA  -0.119
74. ACGGGTCC  -0.127
75. TTCTAGAA  -0.133
76. ACATCTCA  -0.136
77. CGTCAAAG  -0.137
78. AACATTAG  -0.144
79. CGTCCACG  -0.151
80. GCTAGTCC  -0.158
81. AATTCTCA  -0.164
82. AGGATTAT  -0.164
83. AGGAGCGC  -0.17
84. AGCTTTTA  -0.184
85. ATAAGACG  -0.187
86. AGGTGGAG  -0.191
87. CGGGCTAC  -0.197
88. TGCAAAAA  -0.207
89. AAAGAAAG  -0.211
90. ACTTTCGC  -0.222
91. CAAGTAGC  -0.237
92. CCAAAAGC  -0.257
93. GAAGTTCA  -0.262
94. AGGGCCGC  -0.279
